± gives the standard deviation of the averaged measurements. This is one part of the list.

The test system of this assay is PfAP2-I AP2 domain 3 (GST-tagged). Briefly: gcPBM binding intensity (ln(normalized median fluorescence intensity)); higher = stronger DNA binding. Summed up: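 Binding intensity is the highest Masliner-normalised natural-log median intensity over replicate spots in either probe orientation. To obtain it, GST-tagged P. falciparum DNA-binding domains made in E. coli were incubated for 1 h on an Agilent 4 × 180k array of primer-extended double-stranded 36-bp intergenic genomic probes plus negative controls. Detection used Alexa488 anti-GST antibody with scanning at 488 nm.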
In the case of “TATAATATAAGGATCACACACAAACACCCATATATA [CACACA_site4468]”, the “gcPBM binding intensity (ln)” value worked out at 7.92 ± 0.36.
The same measure for “CATACATACATACATACACACATACCTATATTTATA [CACACA_site6769]”: 8.79 ± 0.65; for “TTAATAACAAAATAAACACACATATATAAATACCCA [CACACA_site4960]”: 7.73 ± 0.52.
With “AGCAAAAAAAAAAAAAAAAAAAAAATAATAAAAAAT [TGCATGCA_negctrl_site202]” the figure was 7.54 ± 0.54; with “GTTTTCTAGTGGGGGTGTACATATTTATATTTAATA [XGTACX_site8378]”, 10.8 ± 0.23; with ATATATATATAATAAGTGCAAAAAAAAGAAAAAAAT, 10.18 ± 0.035.
With TTTTTTTTTTTTGAGGTGCATATATCAGATCAATAT the figure was 10.8 ± 0.58; with “CATATATTAATATGTACACACATTAATAAAAAAAAA [CACACA_site7504]”, 7.88 ± 0.29.
On to “AGTATTCATAAAAATACACACATGGAAAAATAAAAT [CACACA_site1454]”, for which the “gcPBM binding intensity (ln)” value is 7.89 ± 0.69.
“ATTGTGGATATTCTTACACACAAATTTATTTATAAA [CACACA_site7267]”: the “gcPBM binding intensity (ln)” value turned out to be 7.52 ± 0.47.
The same measure for “TAAGAAATTGAGCGCACACATACATCTGTGGGATGG [CACACA_site1548]”: 8.19 ± 0.46.
With ATGTAAATATTTTGTATGCACTTTGATGCATCTTTT, the “gcPBM binding intensity (ln)” value stood at 9.995 ± 0.078.
Turning to “TTTTTTTCTTCTTTTCTCTTAAAAATATTGAATATT [CACACA_negctrl_site1762]”, the “gcPBM binding intensity (ln)” value was found to be 7.5 ± 0.67.
As for “TCAAGAGTTATATAAACACACATACATACAGACATA [CACACA_site6998]”, the “gcPBM binding intensity (ln)” value stood at 7.79 ± 0.43.
The same measure for “AAAAAAAAAAAAAAAAAAAAAAAAAAAAAAAAAAAG [CACACA_negctrl_site292]”: 10.4 ± 0.2.
With “TATTCGAACAAAAATACATGCACATATGCATAATAA [TGCATGCA_site171]” the figure was 9.48 ± 0.45; with “TTTTCCAGTAAATATTTTTTTATAATATTTATATAT [CACACA_negctrl_site387]”, 7.66 ± 0.54.
The same measure for “AAATAAAATAAAATACGTACCTATTGTGCGTATTAA [XGTACX_site2912]”: 7.78 ± 0.57; for “AATAATTTCCAAAAATGTACATATATTTACATATAT [XGTACX_site1790]”: 7.72 ± 0.38.
With “ATTTTAACTCCCCTTAATCTATTGTATATATATATA [CACACA_negctrl_site208]”, the “gcPBM binding intensity (ln)” value amounted to 9.14 ± 0.014.
With TAATAAATGTTATTAGTGCATAATAGATAATATATT the figure was 10.8 ± 0.64; with “AGCCACTTAAAATACACACACACCAAAAAAAAAAAA [CACACA_site5497]”, 8.06 ± 0.59.
Regarding “TATTTTATTTATTGAAGTACATTATACAAAAATAAA [XGTACX_site4824]”, the “gcPBM binding intensity (ln)” value was determined as 7.78 ± 0.16.
As to “TTATTTGTTTGTTGGATGCTTTTTTTTTTTTTTTTT [CACACA_negctrl_site1697]”, the “gcPBM binding intensity (ln)” value was 9.09 ± 0.56.
With “TACATATATATAATATGTACTTATAATATGTATTTA [XGTACX_site2162]” the figure was 7.38 ± 0.18; with “AAAAGTGATAATAAGAGTACATAAAAAATTTATTAT [XGTACX_site8037]”, 7.95 ± 0.43.
The same measure for “ATTTCCCACTTGTGTGTGCGCATGTGTATATATTTA [GTGCAC_site9949]”: 8.53 ± 1.
The same measure for “AAATAATTTATAAATAAATACATTGTTACTTTTTCT [GTGCAC_negctrl_site639]”: 7.46 ± 0.66; for “TATTCTATACTATATTGTACTATAATATAATATACT [XGTACX_site797]”: 7.75 ± 0.38; for “TCTTCATATGTTTACTGTACGAGAAAAAAAAAAAAA [XGTACX_site6418]”: 8.23 ± 0.49.
On to “TATGTGTATTTATTTGCATGTTGGTTGTATTTTTTC [TGCATGCA_site479]”, for which the “gcPBM binding intensity (ln)” value is 7.82 ± 0.38.
Regarding “TAATAAAATAAAAATTGTACATTTTATATTTATCAA [XGTACX_site5134]”, the “gcPBM binding intensity (ln)” value was found to be 7.38 ± 0.33.
On to “AATGAAAAAAAAAAAAAAAAGAAGAAGCAAATGGTA [TGCATGCA_negctrl_site335]”, for which the “gcPBM binding intensity (ln)” value was 7.56 ± 0.72.
The same measure for “ATAAATAATTATATATGTACACATTATGAATGGATA [XGTACX_site8336]”: 7.78 ± 0.4; for “AGATTATTTGGACATGCATGTAAAAAAATACGTATA [TGCATGCA_site972]”: 7.76 ± 0.58; for “AAAATATTTAAGCATTGTACATATTTTTACAAATAC [XGTACX_site5349]”: 7.66 ± 0.43.
The same measure for “AAAATTCATCCAACAAGTACATAAATATAATATTAT [XGTACX_site4596]”: 7.77 ± 0.35; for “GGAAAAAGAAATTAATGTACATGTGGATGTATGAGG [XGTACX_site5468]”: 8.23 ± 0.64; for “TAGAAACCATAAAAATGTACTTAAAAATAGACAATT [XGTACX_site5007]”: 7.77 ± 0.69.
Consider “AAGAACAGATAAAATCGTACGTGAAACATGAACTTG [XGTACX_site7793]”, for which the “gcPBM binding intensity (ln)” value amounted to 7.62 ± 0.77.
The same measure for “TCTGAAATTTTAGGGGTGCCTGGGACTAAAGAAACG [GTGCAC_site9785]”: 8.32 ± 0.51; for “ATACATAAATATTATTGTACATATATAATATTAATA [XGTACX_site3514]”: 7.7 ± 0.33.
“TTTAATTCCCATATATGTACACAATTTCTTCTATAA [XGTACX_site1465]”: the “gcPBM binding intensity (ln)” value was 8.06 ± 0.4.
The same measure for “AGACTTTTTATGAGCACACACATATATTATGGAGTA [CACACA_site1040]”: 8.18 ± 0.54; for “ATAAATTCATTATATTGTACAAACAAATGAAAAAAA [XGTACX_site8304]”: 7.72 ± 0.38; for “ATTTTTACTTTTTATGCATGCTATATTTTCAACCAT [TGCATGCA_site871]”: 8.47 ± 0.82.
For the sequence “ATTTTTTTTTTTTTATGTACATATTAAAAAAAATAT [XGTACX_site1829]”, the “gcPBM binding intensity (ln)” value stood at 7.78 ± 0.28.
The same measure for “GGTATTACTTTTAGCTGTACTTATTTAAAAGTCAAA [XGTACX_site530]”: 8.28 ± 0.2; for “ATTAAGGAAAAATTATGTACACAAAAACATATAACA [XGTACX_site2901]”: 8.14 ± 0.45; for “TATACATGTTCAATTTGTACATATATAAATATATAT [XGTACX_site3554]”: 7.64 ± 0.31.
The same measure for “CTACACAAGCATTAAACACACAAAAGGGATACTTTG [CACACA_site1083]”: 7.71 ± 0.64.
With “ATTCAAAAAAATAAAATAAACATAAATAAACATAAA [TGCATGCA_negctrl_site390]” the figure was 7.55 ± 0.47; with “TATTTCTTTATTGGCACACATTTTTTCAATTATATA [CACACA_site4975]”, 8.88 ± 0.28.
In the case of “GCAAATATGTTGATATGTACATATATATATATATAT [XGTACX_site445]”, the “gcPBM binding intensity (ln)” value was determined as 9.21 ± 0.43.
The same measure for “ATATACAAATATATATATATATATATATATATATAT [CACACA_negctrl_site886]”: 9.14 ± 0.46; for “AAAAAATATACATATACACACATATGTATATATAAT [CACACA_site8676]”: 7.57 ± 0.31.
The same measure for “ATTATTTTAATAAAACGTACAAAATATAAATCAAAA [XGTACX_site3770]”: 7.95 ± 0.54.

Source of the values: the supplement of paper PMC11417369.
